# Among all 350,000 compounds or so, about 260 (0.074%) were called active. Inconclusive results, whose numbers are uncertain, are shown with a selection of clear calls. Calls follow the shape of the dose curve; as a rule, active = well fitted inhibition curve with a large enough effect; inconclusive = small, poorly fitted or top-dose-only effect; inactive = no such curve, though single readings can be large or run the other way. A potency beside an inconclusive call is a rough fit, not a confirmed value.
# Target: Ferritin light chain (Equus caballus) (UniProt P02791)
# Sequence of UniProt P02791 (P02791 whole entry, looked up): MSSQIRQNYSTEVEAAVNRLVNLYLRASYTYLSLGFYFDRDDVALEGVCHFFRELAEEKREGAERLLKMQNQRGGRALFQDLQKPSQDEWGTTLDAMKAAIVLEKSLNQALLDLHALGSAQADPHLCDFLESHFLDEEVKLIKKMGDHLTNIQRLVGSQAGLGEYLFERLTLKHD
# Assay: qHTS Assay for Identification of Novel General Anesthetics; also: nearly all actives have a fitted effect of over 20% in size
# Settings: apoferritin/1-aminoanthracene competitive binding, fluorescence; series mostly up to 77.5 µM
# In short: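 Probe: 1-aminoanthracene (50% saturated, PBS). Protein: horse-spleen apoferritin, 10 uM. Incubation: 10 min, room temperature. Detection: 380 nm excitation, 535 nm emission. Analysis: normalized response, four-parameter Hill.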
# Potency is read from the fitted curve at half-maximal effect; tags tell the direction and shape of the fitted curve.
row,Compound,Potency
1,Cc1nn(CC(=O)Nc2ccc3c(c2)OCO3)c(C)c1Cl,"inconclusive: 35.5 µM [inhibitor, single point]"
2,Cc1nnc(N2CCC(C(=O)NCCc3ccccc3Cl)CC2)c2nn(-c3ccccc3)c(C)c12,"inconclusive: 7.08 µM [inhibitor, full curve]"
3,CCOc1ccc(C2C(C(=O)c3ccco3)=C(O)C(=O)N2CCN2CCOCC2)cc1OCC (stereo not given),inactive
4,COc1ccccc1Cc1nc2ccccc2nc1SCC(=O)N(C)c1ccc(F)cc1,inactive
5,Sc1oc(-c2ccccc2)cc1C=Nc1ccccc1,"inconclusive: 31.6 µM [inhibitor, partial curve]"
6,O=C(NCc1ccco1)c1ccc2c(c1)C(=O)c1ccccc1-2,inactive
7,O=C(OCc1ccccc1Cl)c1ccccc1C(=O)c1ccccc1,"inconclusive: 20 µM [inhibitor, partial curve]"
8,CC(C)Cn1c(-c2ccco2)nc2c(c(=O)c3ccccc3n2C)c1=O,"inconclusive: 14.1 µM [inhibitor, partial curve]"
9,Nc1c(C(=O)NCc2ccc3c(c2)OCO3)nnn1Cc1cccc(F)c1,"inconclusive: 2.82 µM [inhibitor, full curve, poor fit]"
10,CCn1c(N2CCN(C(=O)/C=C/c3ccccc3)CC2)nc2ccccc21,inactive
11,O=C(CCl)N1c2ccccc2OCC1c1ccccc1 (stereo not given),inactive
12,COc1cc(C(=O)Nc2ccc(Nc3ccccc3)cc2)cc(OC)c1OC,"inconclusive: 7.08 µM [inhibitor, partial curve]"
13,CC(C)c1ccc(C2=CC(c3ccc(C(C)C)cc3)n3nnnc3N2)cc1 (stereo not given),"inconclusive: 12.6 µM [inhibitor, partial curve]"
14,CCOC(=O)Cn1c(=O)n(CC2CCCO2)c2nc(-c3ccc(C)cc3)nc(C(N)=O)c21 (stereo not given),"inconclusive: 11.2 µM [inhibitor, partial curve]"
15,Clc1ccc(Oc2cnns2)cc1Cl,"inconclusive: 17.8 µM [inhibitor, partial curve]"
16,COc1ccccc1NC(=O)C(=O)NCC(c1ccc2c(c1)OCO2)N1CCOCC1 (stereo not given),inactive
17,COc1ccccc1/C=C/c1nc2ccccc2n1C(C)C,inactive
18,Brc1ccc(-c2noc(CCc3ccccc3)n2)o1,"inconclusive: 22.4 µM [inhibitor, partial curve]"
19,Cc1ccc(C)c(S(=O)(=O)N/N=C2/CCCc3ccccc32)c1,"inconclusive: 14.1 µM [inhibitor, partial curve]"
20,COc1ccc(N2CCN(C(=O)C3CCN(S(=O)(=O)c4cccs4)CC3)CC2)cc1,"inconclusive: 31.6 µM [inhibitor, partial curve]"

# From PubChem BioAssay AID485281 (National Center for Advancing Translational Sciences (NCATS), 2010)
